Some of the results follow. Sequences were assembled here from the parent chain. Inactive controls read about 0.05.

B1: TEV protease; numbered along this chain (parent)
chain: MGESLFKGPRDYNPISSSICHLTNESDGHTTSLYGIGFGPFIITNKHLFRRNNGTLVVQSLHGVFKVKDTTTLQQHLVDGRDMIIIRMPKDFPPFPQKLKFREPQREERICLVTTNFQTKSMSSMVSDTSCTFPSGDGIFWKHWIQTKDGQCGSPLVSTRDGFIVGIHSASNFTNTNNYFTSVPKNFMELLTNQEAQQWVSGWRLNADSVLWGGHKVFMVKPEEPFQPVKEATQL

The variants in the assay derive from B1. As to the kind of experiment: raw area under fraction-flipped curve 0-4 h after induction (AUC4h, not background-subtracted), DNA-recorder readout of cleavage of the substrate (dimensionless); higher = more cleavage of the substrate by the protease variant. As to conditions: temperature: 34 °C; time window: 0-4 h after rhamnose induction. Here is the method: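 In vivo DNA recorder in E. coli TOP10(DE3) ΔrhaA at 34 °C. Each TEVp single-site mutant (parent TEVp 0) is paired with a single-site variant of the 7-mer TEVs (canonical ENLYFQ|S). The substrate sits between flexible linkers in a Bxb1-sfGFP-TEVs-SsrA fusion, so cleavage stabilises Bxb1 and speeds flipping of a recombination array, read by NGS. The value is the raw area under the fraction-flipped curve over 0-4 h after rhamnose induction (AUC4h), with ≥20 reads per time point. It is not background-subtracted; inactive controls average about 0.047.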
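Note: Bxb1 expression induced with 0.2% (w/v) L-rhamnose at OD600 near 0.5, cultures sampled hourly, flipped fraction per protease–substrate barcode pair counted by paired-end Illumina sequencing.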

Consider MGESLFKGPRDYNPISSSICHLTNESDGHTTSLYGIGFGPFIITNKHLFRRNNGTLVVQSLHGVFKVKDTTTLQQHLVDGRDMIIIRMPKDFPPFPQKLKFREPQREERICLVTTNFQTKSMSSMVSDTSCTFPSGDVIFWKHWIQTKDGQCGSPLVSTRDGFIVGIHSASNFTNTNNYFTSVPKNFMELLTNQEAQQWVSGWRLNADSVLWGGHKVFMVKPEEPFQPVKEATQL [G138V], for which the “area with substrate CNLYFQS” value worked out at 0.0581, the “area with substrate DNLYFQS” value was determined as 0.0523, the “area with substrate HNLYFQS” value came to 0.0554 and the “area with substrate INLYFQS” value is 0.0532. In addition, the “area with substrate LNLYFQS” value was determined as 0.0634, the “area with substrate PNLYFQS” value was determined as 0.0575, the “area with substrate TNLYFQS” value was 0.0551 and the “area with substrate VNLYFQS” value was 0.0605. The “area with substrate WNLYFQS” value turned out to be 0.0479 and the “area with substrate YNLYFQS” value turned out to be 0.064.

As to MGESLFKGPRDYNPISSSICHLTNESDGHTTSLYGIGFGPFIITNKHLFRRNNGTLVVQSLHGVFKVKDTTTLQQHLVDGRDMIIIRMPKDFPPFPQKLKFREPQREERICLVTTNFQTKSMSSMVSDTSCTFPSGDNIFWKHWIQTKDGQCGSPLVSTRDGFIVGIHSASNFTNTNNYFTSVPKNFMELLTNQEAQQWVSGWRLNADSVLWGGHKVFMVKPEEPFQPVKEATQL [G138N], the “area with substrate CNLYFQS” value stood at 0.0662, the “area with substrate DNLYFQS” value worked out at 0.073, the “area with substrate FNLYFQS” value came out at 0.0599 and the “area with substrate KNLYFQS” value came to 0.059. For the same variant, the “area with substrate LNLYFQS” value was determined as 0.0511, the “area with substrate MNLYFQS” value was determined as 0.0514, the “area with substrate NNLYFQS” value worked out at 0.0379 and the “area with substrate TNLYFQS” value worked out at 0.0628. Moreover, the “area with substrate WNLYFQS” value was determined as 0.0631 and the “area with substrate YNLYFQS” value stood at 0.041.

Consider MGESLFKGPRDYNPISSSICHLTNESDGHTTSLYGIGFGPFIITNKHLFRRNNGTLVVQSLHGVFKVKDTTTLQQHLVDGRDMIIIRMPKDFPPFPQKLKFREPQREERICLVTTNFQTKSMSSMVSDTSCTFPSGDGIFWRHWIQTKDGQCGSPLVSTRDGFIVGIHSASNFTNTNNYFTSVPKNFMELLTNQEAQQWVSGWRLNADSVLWGGHKVFMVKPEEPFQPVKEATQL [K142R], for which the “area with substrate CNLYFQS” value worked out at 0.0372, the “area with substrate DNLYFQS” value was 0.0658, the “area with substrate GNLYFQS” value came out at 0.0769 and the “area with substrate HNLYFQS” value was determined as 0.0537. The “area with substrate INLYFQS” value was found to be 0.0597, the “area with substrate KNLYFQS” value is 0.0632, the “area with substrate LNLYFQS” value was 0.0863 and the “area with substrate MNLYFQS” value was 0.0304. Besides, the “area with substrate RNLYFQS” value came out at 0.0682, the “area with substrate SNLYFQS” value came out at 0.0575, the “area with substrate TNLYFQS” value is 0.0635 and the “area with substrate WNLYFQS” value stood at 0.0678.

For the variant MGESLFKGPRDYNPISSSICHLTNESDGHTTSLYGIGFGPFIITNKHLFRRNNGTLVVQSLHGVFKVKDTTTLQQHLVDGRDMIIIRMPKDFPPFPQKLKFREPQREERICLVTTNFQTKSMSSMVSDTSCTFPSGDGIFWDHWIQTKDGQCGSPLVSTRDGFIVGIHSASNFTNTNNYFTSVPKNFMELLTNQEAQQWVSGWRLNADSVLWGGHKVFMVKPEEPFQPVKEATQL [K142D], the “area with substrate CNLYFQS” value turned out to be 0.0728, the “area with substrate DNLYFQS” value turned out to be 0.0711, the “area with substrate FNLYFQS” value amounted to 0.0628 and the “area with substrate GNLYFQS” value worked out at 0.0729. Further, the “area with substrate HNLYFQS” value amounted to 0.0643, the “area with substrate INLYFQS” value amounted to 0.065, the “area with substrate KNLYFQS” value was determined as 0.0762 and the “area with substrate NNLYFQS” value was 0.0826. Further, the “area with substrate SNLYFQS” value was determined as 0.0602, the “area with substrate TNLYFQS” value was 0.0338, the “area with substrate WNLYFQS” value amounted to 0.0642 and the “area with substrate YNLYFQS” value turned out to be 0.059.

MGESLFKGPRDYNPISSSICHLTNESDGHTTSLYGIGFGPFIITNKHLFRRNNGTLVVQSLHGVFKVKDTTTLQQHLVDGRDMIIIRMPKDFPPFPQKLKFREPQREERICLVTTNFQTKSMSSMVSDTSCTFPSGDGIFWPHWIQTKDGQCGSPLVSTRDGFIVGIHSASNFTNTNNYFTSVPKNFMELLTNQEAQQWVSGWRLNADSVLWGGHKVFMVKPEEPFQPVKEATQL [K142P]: the “area with substrate CNLYFQS” value was determined as 0.0265, the “area with substrate DNLYFQS” value turned out to be 0.0716, the “area with substrate GNLYFQS” value was determined as 0.0443 and the “area with substrate HNLYFQS” value is 0.037. Besides, the “area with substrate INLYFQS” value was 0.0618, the “area with substrate LNLYFQS” value is 0.0522, the “area with substrate MNLYFQS” value came out at 0.0621 and the “area with substrate PNLYFQS” value is 0.0502. Also, the “area with substrate QNLYFQS” value is 0.0619, the “area with substrate RNLYFQS” value came out at 0.0579, the “area with substrate SNLYFQS” value was 0.062 and the “area with substrate TNLYFQS” value is 0.0552. For the same variant, the “area with substrate VNLYFQS” value was determined as 0.0647, the “area with substrate WNLYFQS” value came to 0.0566 and the “area with substrate YNLYFQS” value was 0.0622.

As for MGESLFKGPRDYNPISSSICHLTNESDGHTTSLYGIGFGPFIITNKHLFRRNNGTLVVQSLHGVFKVKDTTTLQQHLVDGRDMIIIRMPKDFPPFPQKLKFREPQREERICLVTTNFQTKSMSSMVSDTSCTFPSGDGWFWKHWIQTKDGQCGSPLVSTRDGFIVGIHSASNFTNTNNYFTSVPKNFMELLTNQEAQQWVSGWRLNADSVLWGGHKVFMVKPEEPFQPVKEATQL [I139W], the “area with substrate CNLYFQS” value came out at 0.0816, the “area with substrate DNLYFQS” value is 0.0682, the “area with substrate FNLYFQS” value is 0.0645 and the “area with substrate GNLYFQS” value came out at 0.069. For the same variant, the “area with substrate HNLYFQS” value is 0.0578, the “area with substrate INLYFQS” value came out at 0.0391, the “area with substrate KNLYFQS” value is 0.0469 and the “area with substrate LNLYFQS” value amounted to 0.083. Besides, the “area with substrate MNLYFQS” value was determined as 0.0578, the “area with substrate NNLYFQS” value was determined as 0.0752, the “area with substrate SNLYFQS” value amounted to 0.0759 and the “area with substrate TNLYFQS” value is 0.0715. The “area with substrate WNLYFQS” value came to 0.0746.

Take MGESLFKGPRDYNPISSSICHLTNESDGHTTSLYGIGFGPFIITNKHLFRRNNGTLVVQSLHGVFKVKDTTTLQQHLVDGRDMIIIRMPKDFPPFPQKLKFREPQREERICLVTTNFQTKSMSSMVSDTSCTFPSGDGPFWKHWIQTKDGQCGSPLVSTRDGFIVGIHSASNFTNTNNYFTSVPKNFMELLTNQEAQQWVSGWRLNADSVLWGGHKVFMVKPEEPFQPVKEATQL [I139P]: the “area with substrate CNLYFQS” value worked out at 0.0634, the “area with substrate DNLYFQS” value came out at 0.068, the “area with substrate HNLYFQS” value was found to be 0.055 and the “area with substrate INLYFQS” value came out at 0.0722. Besides, the “area with substrate MNLYFQS” value stood at 0.0561, the “area with substrate PNLYFQS” value came to 0.053, the “area with substrate SNLYFQS” value is 0.0591 and the “area with substrate TNLYFQS” value was 0.069. Moreover, the “area with substrate WNLYFQS” value stood at 0.0746 and the “area with substrate YNLYFQS” value was 0.0606.

For the variant MGESLFKGPRDYNPISSSICHLTNESDGHTTSLYGIGFGPFIITNKHLFRRNNGTLVVQSLHGVFKVKDTTTLQQHLVDGRDMIIIRMPKDFPPFPQKLKFREPQREERICLVTTNFQTKSMSSMVSDTSCTFPSGDGIFRKHWIQTKDGQCGSPLVSTRDGFIVGIHSASNFTNTNNYFTSVPKNFMELLTNQEAQQWVSGWRLNADSVLWGGHKVFMVKPEEPFQPVKEATQL [W141R], the “area with substrate CNLYFQS” value is 0.0534, the “area with substrate DNLYFQS” value stood at 0.0877, the “area with substrate FNLYFQS” value was found to be 0.0425 and the “area with substrate GNLYFQS” value amounted to 0.051. For the same variant, the “area with substrate INLYFQS” value amounted to 0.0581, the “area with substrate LNLYFQS” value was 0.0454, the “area with substrate MNLYFQS” value was determined as 0.0625 and the “area with substrate QNLYFQS” value was 0.062. For the same variant, the “area with substrate SNLYFQS” value is 0.0459, the “area with substrate TNLYFQS” value amounted to 0.0635, the “area with substrate VNLYFQS” value was determined as 0.0466 and the “area with substrate WNLYFQS” value came out at 0.0316.

As for MGESLFKGPRDYNPISSSICHLTNESDGHTTSLYGIGFGPFIITNKHLFRRNNGTLVVQSLHGVFKVKDTTTLQQHLVDGRDMIIIRMPKDFPPFPQKLKFREPQREERICLVTTNFQTKSMSSMVSDTSCTFPSGDGIFCKHWIQTKDGQCGSPLVSTRDGFIVGIHSASNFTNTNNYFTSVPKNFMELLTNQEAQQWVSGWRLNADSVLWGGHKVFMVKPEEPFQPVKEATQL [W141C], the “area with substrate CNLYFQS” value turned out to be 0.0552, the “area with substrate DNLYFQS” value is 0.0183, the “area with substrate GNLYFQS” value stood at 0.0586 and the “area with substrate HNLYFQS” value worked out at 0.0557. Besides, the “area with substrate INLYFQS” value amounted to 0.0622, the “area with substrate KNLYFQS” value is 0.0636, the “area with substrate LNLYFQS” value worked out at 0.0109 and the “area with substrate NNLYFQS” value came out at 0.0666. Besides, the “area with substrate PNLYFQS” value worked out at 0.0994, the “area with substrate RNLYFQS” value is 0.0572, the “area with substrate SNLYFQS” value was determined as 0.0624 and the “area with substrate TNLYFQS” value was 0.0496. Further, the “area with substrate WNLYFQS” value was determined as 0.0617 and the “area with substrate YNLYFQS” value worked out at 0.0589.

Values taken from the supplement of paper PMC12217912.
